Test results as given in the supplement of paper PMC3334620.
In all, about 33,000 sequences were measured (“E-score (-0.5 to 0.5)”: median about -0.013, highest 2% from about 0.3 on). The list shows a part of the results.

Target: T1, Msn1 (UniProt P22148)
T1 sequence: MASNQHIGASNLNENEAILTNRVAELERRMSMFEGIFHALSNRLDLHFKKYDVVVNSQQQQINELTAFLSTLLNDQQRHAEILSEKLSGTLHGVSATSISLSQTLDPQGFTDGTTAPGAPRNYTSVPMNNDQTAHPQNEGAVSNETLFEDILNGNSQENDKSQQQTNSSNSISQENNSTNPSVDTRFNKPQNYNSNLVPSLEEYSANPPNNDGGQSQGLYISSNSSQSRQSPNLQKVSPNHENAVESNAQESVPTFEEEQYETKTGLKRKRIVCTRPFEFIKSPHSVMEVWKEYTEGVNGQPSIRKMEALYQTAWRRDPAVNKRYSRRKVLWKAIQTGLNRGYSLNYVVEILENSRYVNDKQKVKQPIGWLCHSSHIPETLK
Assay: PBM E-score (8-mer binding enrichment) (E-score (-0.5 to 0.5)); higher = stronger / more preferred TF binding; most listed sequences are background and not binding sites
Conditions: protein concentration: 200 nM; construct: GST-full length
Summary of the method: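 Detection of bound protein used fluorescent anti-GST, with scans normalised by masliner. The proteins were GST-tagged yeast transcription factors applied at about 100-200 nM to universal all-10-mer Agilent arrays made double-stranded by primer extension. Each ungapped eight-base word, pooled with its reverse complement, was scored with an E-score from the Universal PBM Analysis Suite.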

Row | Sequence | PBM E-score
1 | ATGGCGTC | -0.103
2 | AAACGTGC | -0.178
3 | CGAATTAA | 0.0787
4 | AGCTTCCG | -0.0235
5 | CCATGTCG | 0.239
6 | CCCATAAC | -0.0254
7 | AGTTTATA | 0.235
8 | ATCAGTAG | -4e-05
9 | ATCCGACC | -0.00924
10 | AGGTAAAG | 0.122
11 | AATTACTG | -0.0343
12 | ACTGCGCA | 0.162
13 | CATGGACC | -0.0789
14 | ACAGTTGA | 0.0741
15 | ACCCCATC | -0.269
16 | CGCTAACA | 0.00832
17 | ACATATGC | -0.0219
18 | CGAGTATA | 0.139
19 | TCTTGCAA | 0.0285
20 | ATATTTTA | 0.225
21 | CCCAGGGA | -0.24
22 | TGGAGTAA | -0.0366
23 | CGAAATCC | -0.0159
24 | AACAGCCT | -0.0797

Row | Sequence | PBM E-score
25 | ATCCTGAC | 0.0473
26 | GCCACCGA | -0.211
27 | AGACCGAC | 0.0898
28 | ACGTTATC | -0.112
29 | AGCACTGA | 0.00326
30 | GCTTGTCC | 0.454
31 | ACCAGCCT | -0.239
32 | CCAGCGAG | -0.225
33 | CCCGCTTC | -0.225
34 | ATCAATTC | -0.026
35 | GTTAAAAA | 0.175
36 | CTTGGAAA | 0.024
37 | CACCGGGC | -0.172
38 | AACCCACT | 0.0682
39 | GGGGGTGA | -0.354
40 | AGGAGGAT | -0.174
41 | AAGCCTAC | -0.0603
42 | TGTCCAAA | 0.473
43 | AAGACCTT | 0.00647
44 | GTGTCCGA | 0.37
45 | ATTCCGTC | 0.0422
46 | GTTGCGCA | -0.0202
47 | AGCAAGCG | -0.0466
48 | CCTTGGAC | 0.185

Row | Sequence | PBM E-score
49 | GGGGACAC | 0.28
50 | CTTAGTGC | 0.111
51 | CCATGTCA | 0.164
52 | GGCAGCCC | -0.3
53 | GAAGGCAC | -0.0435
54 | CCTGAACC | -0.0625
55 | GTATACAC | -0.00867
56 | ACAGGCAT | -0.0412
57 | AGGATCGA | -0.0232
58 | AGCCGGAG | 0.0715
59 | ATCCTTTC | -0.0316
60 | GGCCTAAA | -0.0755
61 | ACTGTCGA | -0.106
62 | GACGTCGA | 0.0985
63 | ACAGACAG | 0.222
64 | ACCAGTGG | -0.23
65 | GGCGGGGA | 0.0388
66 | ACAGTGGT | -0.123
67 | CCGATCTA | -0.00864
68 | CGAAACGC | -0.00657
69 | GAATGCCA | -0.0809
70 | AGTAGCGG | -0.0435
71 | CGGTTACC | -0.195
72 | GCGTCAAA | 0.0868

Row | Sequence | PBM E-score
73 | ACACGCGT | 0.21
74 | AGTTGCTC | -0.154
75 | ATATTAAG | 0.234
76 | GCAACGCC | -0.0816
77 | AAATGACC | 0.0678
78 | AAAACTTT | -0.0847
79 | CACTGGTC | -0.0999
80 | AACGGCCA | 0.0469
81 | CACAGCCA | -0.168
82 | AGCTGGGA | 0.0709
83 | GAGTACCC | -0.232
84 | CGCCCAGC | -0.219
85 | AGGCCGTC | -0.229
86 | AGCCATCC | -0.277
87 | CTGAACAC | 0.0459
88 | GCGTAGGA | -0.253
89 | AGGTATAG | -0.0758
90 | CTACCTGC | -0.0941
91 | CACGACCA | -0.00647
92 | ATCCGAGA | 0.187
93 | CCGCTTAC | -0.0448
94 | GAACATGA | -0.0143
